Reference: PubChem BioAssay (Tox21)
Several values for one entry are separate records, joined by “and”; a condition that tells them apart may be missing. Identical values can stand only once. The inconclusive results got no clear call from the source; some entries with a clear call stand among them for comparison. For part of these data: A potency beside an inconclusive call is a rough fit, not a confirmed value. Activity calls are given as the source filed them. Unless noted, calls come from the whole dose curve; as a rule, active = well fitted curve in the direction sought with a large enough effect in the repeat runs; inconclusive = weak or mixed curves; inactive = no such curve, though single readings can be large; an effect the other way counts as inactive or inconclusive.

Tests used:
[1] = qHTS assay to identify small molecule agonists of H2AX (AID 1224845; active = well fitted activation curve with a large enough effect in the signal ratio in the repeat runs, not every such curve was filed as active; inconclusive = weak or mixed curves; the % refers to the signal ratio; note: potency is the fitted concentration of half-maximal effect; for activation (H2AX phosphorylation): % is set by controls: 0 for no effect and ±100 for the full control effect); settings: CHO-K1 phospho-H2AX Ser139 HTRF, 3 h; activation (H2AX phosphorylation): at 154 µM (top of the series) unless noted
Summary of the method: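 Wild-type CHO-K1 cells, plated overnight, exposed 3hr at 37C to 15 concentrations (0.76% DMSO final). Lysed, then HTRF anti-pH2AX (S139) cryptate and anti-H2AX-d2 antibodies, 24 hr room temperature; 665/620 nm emission read.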

[2] = qHTS assay to identify small molecule agonists of the hypoxia (HIF-1) signaling pathway (AID 1224846; active = well fitted activation curve with a large enough effect in the signal ratio in the repeat runs, not every such curve was filed as active; inconclusive = weak or mixed curves; the % refers to the signal ratio; note: potency is the fitted concentration of half-maximal effect); settings: HRE-bla ME-180 cells, beta-lactamase ratio, 17 h; activation: at 76.8 µM (top of the series) unless noted
Summary of the method: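 ME-180 HRE-bla reporter cells; compounds in DMSO, 17 h at 37C; read-out beta-lactamase via CCF4-AM FRET.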

[3] = qHTS assay to identify small molecule agonists of H2AX - cell viability counter screen (AID 1224847; calls by dose curve; note: potency is the fitted concentration of half-maximal effect; nearly all actives have a fitted effect of over 30% in size)
Summary of the method: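 Counter-screen for viability: CellTiter-Glo ATP luminescence read after 3 h compound treatment (15-point titration, 0.76% DMSO final) of CHO-K1 cells at 37C, with 30 min room-temperature reagent incubation.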

[4] = A CellTox Green Cytotoxicity Assay to monitor cytotoxicity in HEK293 cells - 40 hour (AID 1224871); note: potency is the fitted concentration of half-maximal effect; nearly all actives have a fitted effect of over 45% in size
Summary of the method: (§1)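 Real-time, in one plate: 600 HEK293 cells/well with dead-cell DNA dye, pinned compound after 5 h, 37 C incubation over 40 h; viable cells give no appreciable fluorescence.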

[5] = qHTS RealTime-Glo MT Cell Viability Assay in HEK293 cells - 16 hour (AID 1224872); note: potency is the fitted concentration of half-maximal effect; nearly all actives have a fitted effect of over 50% in size
Summary of the method: (§2)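 Tox21 10K qHTS, HEK293, 600 cells/well, RealTime-Glo reagent co-dispensed with cells; 5 h preincubation, compound by pintool, 37 C, luminescence at 0–40 h.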

[6] = qHTS RealTime-Glo MT Cell Viability Assay in HEK293 cells - 40 hour (AID 1224874); settings: RealTime-Glo luminescence; max response: stronger effect = lower value; note: potency is the fitted concentration of half-maximal effect; nearly all actives have a fitted effect of over 50% in size
Summary of the method: (§3)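 Kinetic, non-lysing viability readout. Seed HEK293 (600/well) with reagent, incubate 5 h at 37 C/5% CO2, pin 23 nL compound in DMSO, incubate at 37 C, read luminescence at 0, 8, 16, 24, 32, 40 h.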

[7] = A CellTox Green Cytotoxicity Assay to monitor cytotoxicity in HEK293 cells - 24 hour (AID 1224875); note: potency is the fitted concentration of half-maximal effect; nearly all actives have a fitted effect of over 45% in size
Summary of the method: as §1

[8] = A CellTox Green Cytotoxicity Assay to monitor cytotoxicity in HepG2 cells - 16 hour (AID 1224876); note: potency is the fitted concentration of half-maximal effect; nearly all actives have a fitted effect of over 45% in size
Summary of the method: (§4)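 Cytotoxicity was tracked as dead-cell DNA fluorescence in HepG2 cells treated with test compounds at 37 C; each time-point value comes from one kinetic series spanning 0, 8, 16, 24, 32 and 40 h.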

[9] = A CellTox Green Cytotoxicity Assay to monitor cytotoxicity in HepG2 cells - 24 hour (AID 1224878); note: potency is the fitted concentration of half-maximal effect; nearly all actives have a fitted effect of over 45% in size
Summary of the method: as §4

[10] = A CellTox Green Cytotoxicity Assay to monitor cytotoxicity in HepG2 cells - 40 hour (AID 1224879); note: potency is the fitted concentration of half-maximal effect; nearly all actives have a fitted effect of over 40% in size
Summary of the method: as §4

[11] = A CellTox Green Cytotoxicity Assay to monitor cytotoxicity in HEK293 cells - 32 hour (AID 1224881); note: potency is the fitted concentration of half-maximal effect; nearly all actives have a fitted effect of over 40% in size
Summary of the method: as §1

[12] = qHTS RealTime-Glo MT Cell Viability Assay in HEK293 cells - 32 hour (AID 1224868); note: potency is the fitted concentration of half-maximal effect; nearly all actives have a fitted effect of over 50% in size
Summary of the method: as §2

[13] = qHTS RealTime-Glo MT Cell Viability Assay in HepG2 cells - 8 hour (AID 1224873); note: potency is the fitted concentration of half-maximal effect; nearly all actives have a fitted effect of over 55% in size
Summary of the method: (§5)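 HepG2 cells (600/well) mixed with RealTime-Glo MT reagent, settled 5 h at 37 C/5% CO2 before compound addition. Nonlytic NanoLuc luminescence from viable-cell prosubstrate reduction read repeatedly during 40 h treatment at 37 C.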

[14] = qHTS RealTime-Glo MT Cell Viability Assay in HepG2 cells - 32 hour (AID 1224877); note: potency is the fitted concentration of half-maximal effect; nearly all actives have a fitted effect of over 55% in size
Summary of the method: (§6)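 Cells + NanoLuc/prosubstrate dispensed (600 cells/well) → 5 h at 37 C/5% CO2 → compounds in DMSO transferred → 40 h incubation at 37 C, luminescence read at 0, 8, 16, 24, 32, 40 h.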

[15] = qHTS assay to identify small molecule antagonists of the estrogen related receptor (ERR) signaling pathway from Tox21 library (AID 1224848); note: potency is the fitted concentration of half-maximal effect; nearly all actives have a fitted effect of over 50% in size
Summary of the method: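 Compounds dissolved in DMSO are pin-transferred onto ERR reporter cells (2,000 per well) that have settled for 6 h at 37 C. Plates then incubate 18 h at 37 C before ONE-Glo luciferase reagent and a luminescence read 30 min later.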

[16] = qHTS RealTime-Glo MT Cell Viability Assay in HepG2 cells - 24 hour (AID 1224867)
Summary of the method: as §6

[17] = qHTS RealTime-Glo MT Cell Viability Assay in HEK293 cells - 0 hour (AID 1224880)
Summary of the method: as §3

[18] = qHTS RealTime-Glo MT Cell Viability Assay in HepG2 cells - 40 hour (AID 1224870)
Summary of the method: as §5

[19] = qHTS assay to identify small molecule agonists of the estrogen related receptor (ERR) signaling pathway from Tox21 library (AID 1224849; calls by dose curve; note: % is set by controls: 0 for no effect and ±100 for the full control effect; nearly all actives have a fitted effect of over 15% in size); settings: ERR reporter cell line, ONE-Glo luciferase, 18 h; at 42.5 µM (top of the series)
Summary of the method: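 Luciferase activity in ERR pathway reporter cells served as the agonist readout; exposure lasted 18 h at 37 C, with ONE-Glo detection after 30 min at room temperature.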
Tags give direction and shape of the fitted curve or compound fluorescence and quenching.

O=C(NO)c1ccccc1
inconclusive: Potency [1] 95.9 µM [activator, partial curve, poor fit] | Potency [2] 10.4 µM [falling, full curve] | Potency [3] 67.9 µM [rising, partial curve] | Potency [4] 52.3 µM [activator, single point] | Potency [5] 20.8 µM [rising, partial curve] | Potency [6] 13.1 µM [rising, full curve, poor fit] | Potency [7] 52.3 µM [activator, single point] | Potency [8] 52.3 µM [activator, single point] | Potency [9] 52.3 µM [activator, single point] | Potency [10] 41.6 µM [activator, partial curve] | Potency [11] 52.3 µM [activator, single point]

CC1=C(C(=O)OC(C)C)C(c2cccc([N+](=O)[O-])c2)C(C(=O)OC2CN(C(c3ccccc3)c3ccccc3)C2)=C(N)N1 (stereo not drawn)
active: Potency [3] 55.2 µM | Potency [14] 21.3 µM | Potency [10] 23.9 µM
inconclusive: Potency [1] 55.2 µM [activator, single point] | Potency [2] 13.4 µM [full curve] | Potency [12] 21.3 µM [cytotoxic, partial curve] | Potency [5] 23.9 µM [cytotoxic, single point] | Potency [13] 21.3 µM [falling, partial curve] | Potency [6] 21.3 µM [cytotoxic, partial curve] | Potency [8] 23.9 µM [activator, single point]

Clc1nc(C(Cl)(Cl)Cl)c(Cl)c(Cl)c1Cl
inactive: Potency [17]
inconclusive: activation (H2AX phosphorylation) [1] 10.8% | Potency [2] 1.74 µM [rising, full curve] | Potency [15] 54.5 µM [inhibitor, partial curve, poor fit] | Potency [16] 54.9 µM [falling, partial curve] | Potency [4] 49 µM [activator, single point] | Potency [5] 49 µM [cytotoxic, partial curve, poor fit] | Potency [7] 54.9 µM [activator, partial curve, poor fit] | Potency [14] 54.9 µM [cytotoxic, partial curve] | Potency [11] 49 µM [activator, partial curve, poor fit]
active: Potency [9] 43.6 µM

Cc1cc(Cc2cc(C)cc(C(C)(C)C)c2O)c(O)c(C(C)(C)C)c1
inconclusive: Potency [2] 11 µM [falling, full curve] | Potency [13] 43.9 µM [falling, partial curve]
active: Potency [1] 56.9 µM and 45 µM | Potency [3] 40.3 µM and 31.8 µM | Potency [16] 49.2 µM and 43.6 µM | Potency [7] 43.9 µM and 43.6 µM | Potency [8] 39.1 µM and 38.9 µM

CCOC(=O)N1CCC(=C2c3ccc(Cl)cc3CCc3cccnc32)CC1
inconclusive: Potency [1] 113 µM [activator, single point] and 61.9 µM [activator, single point] | Potency [2] 54.9 µM [partial curve] and 21.3 µM [partial curve] | Potency [3] 127 µM [cytotoxic, single point] | Potency [18] 54.9 µM [falling, partial curve, poor fit] and 21.3 µM [falling, partial curve, poor fit] | Potency [4] 26.8 µM [activator, single point] | Potency [13] 54.9 µM [falling, partial curve, poor fit] and 23.9 µM [falling, partial curve, poor fit] | Potency [7] 43.6 µM [activator, partial curve, poor fit] | Potency [8] 26.8 µM [activator, single point] | Potency [9] 54.9 µM [activator, single point] and 26.8 µM [activator, single point] | Potency [10] 23.9 µM [activator, partial curve, poor fit] | Potency [11] 38.9 µM [activator, partial curve, poor fit]

CCCCc1oc2ccc(NS(C)(=O)=O)cc2c1C(=O)c1ccc(OCCCN(CCCC)CCCC)cc1
inconclusive: Potency [1] 12.4 µM [activator, partial curve] | Potency [2] 13.4 µM [falling, full curve]
inactive: activity change, positive = activation [19] -64.5%
active: Potency [18] 9.52 µM | Potency [8] 21.3 µM

COc1ccc(-c2ccc3cc(C(=O)O)ccc3c2)cc1C12CC3CC(CC(C3)C1)C2
inconclusive: Potency [1] 19.6 µM [falling, partial curve, poor fit] | Potency [2] 23.9 µM [partial curve] | Potency [15] 9.44 µM [inhibitor, partial curve] | Potency [16] 23.9 µM [falling, single point] | Potency [5] 4.77 µM [cytotoxic, full curve] | Potency [13] 23.9 µM [falling, single point] | Potency [8] 26.8 µM [activator, single point] | Potency [14] 23.9 µM [cytotoxic, partial curve]
